From the supplement of paper PMC13380429

How the values were obtained:
Conditions in all cases: 72 h
HepG2 [1] = assay: relative viability EC50 (midpoint between 100% and the lowest measured viability); higher = less toxic
Calu-3 [2] = assay: as above
Vero E6 [3] = assay: as above
U2OS [4] = assay: as above
Caco-2 [5] = assay: as above
HepG2 [6] = assay: drug sensitivity score (DSS) for viability; higher = more toxic; extreme values may be limits of the assay
Calu-3 [7] = assay: as above
Vero E6 [8] = assay: as above
U2OS [9] = assay: as above
Caco-2 [10] = assay: as above
HepG2 [11] = assay: cell viability relative to DMSO; higher = less toxic
Calu-3 [12] = assay: as above
Vero E6 [13] = assay: as above
U2OS [14] = assay: as above
Caco-2 [15] = assay: as above

With `Cc1cccc(CCN2CCC(C(=O)c3ccc(NS(C)(=O)=O)cc3)CC2)n1` [E-4031] the “relative viability EC50” value (HepG2 [1]) was > 10 µM, the “relative viability EC50” value (Calu-3 [2]) was > 10 µM and the “relative viability EC50” value (Vero E6 [3]) was > 10 µM. For the same compound, the “relative viability EC50” value (U2OS [4]) was > 10 µM, the “relative viability EC50” value (Caco-2 [5]) was > 10 µM and the drug sensitivity score (HepG2 [6]) was 0. The drug sensitivity score (Calu-3 [7]) was 0, the drug sensitivity score (Vero E6 [8]) was 0 and the drug sensitivity score (U2OS [9]) was 0. The drug sensitivity score (Caco-2 [10]) was 0, the cell viability (HepG2 [11]; 1 nM) was 89.5% and the cell viability (HepG2 [11]; 10 nM) was 97.5%. It also gave a cell viability (HepG2 [11]; 100 nM) of 96.9%, a cell viability (HepG2 [11]; 1000 nM) of 107% and a cell viability (HepG2 [11]; 10000 nM) of 100%. For the same compound, the cell viability (Calu-3 [12]; 1 nM) was 91.1%, the cell viability (Calu-3 [12]; 10 nM) was 95.6% and the cell viability (Calu-3 [12]; 100 nM) was 82.8%. For the same compound, the cell viability (Calu-3 [12]; 1000 nM) was 93.1%, the cell viability (Calu-3 [12]; 10000 nM) was 95.2% and the cell viability (Vero E6 [13]; 1 nM) was 94.7%. The cell viability (Vero E6 [13]; 10 nM) was 97.1%, the cell viability (Vero E6 [13]; 100 nM) was 91.5% and the cell viability (Vero E6 [13]; 1000 nM) was 97%. For the same compound, the cell viability (Vero E6 [13]; 10000 nM) was 106%, the cell viability (U2OS [14]; 1 nM) was 99.1% and the cell viability (U2OS [14]; 10 nM) was 98.3%. It also gave a cell viability (U2OS [14]; 100 nM) of 101%, a cell viability (U2OS [14]; 1000 nM) of 97.3% and a cell viability (U2OS [14]; 10000 nM) of 98.6%. It also gave a cell viability (Caco-2 [15]; 1 nM) of 93.9%, a cell viability (Caco-2 [15]; 10 nM) of 96.1% and a cell viability (Caco-2 [15]; 100 nM) of 97.4%. The cell viability (Caco-2 [15]; 1000 nM) was 89% and the cell viability (Caco-2 [15]; 10000 nM) was 99.6%.
